# Measured values: the supplement of paper PMC11417369
# Some of the results follow.
# Test system: PfSIP2 AP2 domain 1 (GST-tagged)
# Assay: gcPBM binding intensity (ln(normalized median fluorescence intensity)); higher = stronger DNA binding
# Method in brief: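 Binding of GST-tagged P. falciparum DNA-binding domains, expressed in E. coli and used at about 25 μg on average, was carried out for 1 h in 1× PBS containing 1% milk, 0.2 mg/ml BSA, 0.5% salmon testes DNA and 0.03% Triton X-100. The target was an Agilent 4 × 180k array of primer-extended double-stranded 36-bp intergenic genomic probes plus negative controls, read with Alexa488 anti-GST antibody at 488 nm. Binding intensity is the highest Masliner-normalised natural-log median intensity across replicate spots of either probe orientation.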
row,Sequence,gcPBM binding intensity (ln)
1,TTTTTTTTTTTCAATAGTACTTTCCATTTACATATA [XGTACX_site3889],6.89
2,AAATATATATAAAACTCACACATTATCTTATAACCA [CACACA_site5268],6.88
3,TTTAATAAAAAAATTAAAAATAAAGAAAAAAAAAAA [CACACA_negctrl_site1464],6.76
4,ATGTATGGAAATTTTACACACAAGAGTAGTTTAAAA [CACACA_site1710],6.68
5,AAAAAATAATATTGTACACACATAAATTCTTTGTCA [CACACA_site5187],6.96
6,TATGTGTATACAATATGTACATATGTTAACTTGTAT [XGTACX_site872],7.26
7,GCGTAATCTATTTGCACACTTATTTGTTCTTAAAAA [CACACA_site672],7.41
8,TTAAATAAATATAAGTGTACATACACACTTTACAAT [XGTACX_site6348],6.8
9,GCATATGTTCAGCGTTGTACATAAAAAAAAACATAT [XGTACX_site5974],7.23
10,TGAGATAACAAAAGTTGTACTTTTTTTTTTTTTTTT [XGTACX_site3004],7.47
11,TTTTGAAAGTTTTTGTGTCCACATATATTTATATAT [XGTACX_site6563],7.12
12,GTTTAAAGTTGAACAAGTACACATTTATATAAGGCA [XGTACX_site351],7.04
13,TTTATTTATTACTAAAGTACTAAATCATATAATTAT [XGTACX_site3654],6.76
14,ATATATGTTCCTTTTACACACATAATCTTTTTTTTA [CACACA_site2661],7.29
15,TTTTTAAAAATATACACACACAGATATTATATATAT [CACACA_site786],7.65
16,AAAATATAATATAATGCACACATAAAAAAAAAAAAA [CACACA_site7989],7.19
17,ATATTGTGTTATAAATGTACACAATTTCCTTTCATA [XGTACX_site7481],7.13
18,ATATATATATGTATGTATATATATATATATGTTTGA [GTGCAC_negctrl_site561],8.69
19,GGGGACGCGGGTGGGGGTACTCACACTATGCAAAAT [XGTACX_site7745],8.85
20,GTATCAATAAAAAACAGTACATATATAATATATTTA [XGTACX_site1083],6.93
21,AAAAAAAAGGAAATAACACACATGTATATATCTATA [CACACA_site6856],6.73
22,TTCATATAGAATTGTACACACAAAAACGACATTGTG [CACACA_site7061],7.02
23,TATACTCATAAATACACACACATATATATATATATA [CACACA_site5822],9.67

row,Sequence,gcPBM binding intensity (ln)
1,GGGGGCTTTTATAAAAGTACAAAATGAATAAAAATT [XGTACX_site2393],8.5
2,TATACATACCCACCCACACACAAAAAAAAAAAAAAA [CACACA_site4632],7.3
3,AAAATATAATATAATGCACACATAAAAAAAAAATCA [CACACA_site7922],7.32
4,TATCTGTAAATGGACACACACATATATATATATATA [CACACA_site5926],9.64
5,TCTTTATTATTCGCCACACACATATATATATATATA [CACACA_site3077],9.28
6,TTTTAAAAAAAATAAAAAATAAACAATAATAAATAA [CACACA_negctrl_site721],6.9
7,TATATATATAAAAATACACACATGAATGAATATATA [CACACA_site419],7.94
8,CTTTTTTTTTTTTTTTGTCCGTATGAGGGACCTATA [XGTACX_site8839],6.8
9,TCCATTGTCACCTTTTGTACTTAAATTTTTTCCTCC [XGTACX_site1573],7.02
10,ATATCATCTTCTCTATCATTTTTTTTTTTTTTTTTT [CACACA_negctrl_site1220],7.69
11,TGAGATAAATGTGGTAGTACATTTTTTTTATATATA [XGTACX_site1918],7.11
12,CAAAAATTACCCTTGTGTACACATATATTATATGTA [XGTACX_site1124],7.01
13,ATAAAAAAATCAGACACACACACGTAAACACATACA [CACACA_site5529],7.12
14,TTAATTATGTTTTGGTGTACAATAAATTGAATAGAT [XGTACX_site3306],7.34
15,CTACTTAATATTTGTACACACATATTTAACCTACTA [CACACA_site5725],7.32
16,ATGTTATAATTTAGTGTGCACATATTAAGAGGAACA,10.1
17,ATATATATTTATATATGTACATATTTTTGTGTATTT [XGTACX_site1183],7.21
18,ATATATATATATATATGTACATAATAATTTTATAAA [XGTACX_site5105],8.85
19,AATAATAATAGAAACACACACACATTTTTAATAATA [CACACA_site1217],6.84
20,ATATATTTTATACATACACACATATATATATTTTTT [CACACA_site3940],7.23
21,TGATTAAATCAAGAAAGTACAAAATGAAATATATAA [XGTACX_site4319],7.03
22,AAAATAATTTTATAGTTGCACTATATCGTATACAAT,8.54
23,TAAAGTGTAAAATTCACACACATATAAATAAATATA [CACACA_site6765],6.82

row,Sequence,gcPBM binding intensity (ln)
1,TTTAAAAAAAAAAATACACACATAAAAGTTTTCAAA [CACACA_site6471],6.74
2,TACAAAAGCTATAACATTCACCACATTATAAAAATA [CACACA_negctrl_site1112],6.95
3,TTTTCATTAAGATACTTATAATAGTTTATTAGTAAA [CACACA_negctrl_site586],6.67
4,TTACAAATATTATAATGTACCCATTTTTTTTGCCTT [XGTACX_site6612],6.91
5,AATTCAAAGAAAAACTGTACGTGTAGCAAACATCCT [XGTACX_site599],7.07
6,TAATATGAAGATGGCAGTACTCTAGTCAATTTTTAC [XGTACX_site5375],6.79
7,AAAATATATAAATATACATGCATAATTAATAGTATA [TGCATGCA_site804],6.92
8,TATTATATATATAGGTGTACGCATTTGTCCTTTATA [XGTACX_site1385],7.19
9,AAACTTATGTTTACATGTACAGAACTTTATATTATG [XGTACX_site4843],6.95
10,TCGAACATTAACATAACACACATATAGATTTATATA [CACACA_site7380],6.96
11,TTATTCTTTAACTAAAATTATATATATATATTATAC [CACACA_negctrl_site1597],7.03
12,TTGTATGCTTCCCGACTACATTATGCCATAAATGTA [TGCATGCA_negctrl_site136],6.97
13,ATAACTTATTTTTAAAGTACATTATTATATATATAT [XGTACX_site1620],8.61
14,ATTGTAATAAATTGTAGTACATGTAAGGTTTTATTT [XGTACX_site1005],7.04
15,AATAAAAATATATCCACACACATATATAAATATGTA [CACACA_site6415],6.78
16,TTAAGAATATTTTCATGTACTCATTTTTTTTGTTAT [XGTACX_site1814],7
17,ATTACATATGTGAGTTGTACTATAAATATATAATAT [XGTACX_site3718],7.09
18,AAAACAAACATTACACGTACAAAACAAGTTATAGAC [XGTACX_site6320],7.22
19,TTTTTGATATTAAAGGGTACATTATTTACAAAAAAA [XGTACX_site5284],6.93
20,ATGCTTTTTTATAAAAGTACATAAAGTTTTTACACT [XGTACX_site7307],6.95
21,CTGCCTTCCATACCCACACACTTCCCATATATTTTA [CACACA_site5491],7.57
22,GATCCTGGTTCTTGTGGTACTTGTTCATTTGTTATA [XGTACX_site7164],7.07
23,ATTCTTTTATTTAGTAGTACATTTGTATTTTATTCA [XGTACX_site5790],7.39

row,Sequence,gcPBM binding intensity (ln)
1,TAAACATTTTTAATTTTGTAAAATTTTAAATAAAAA [XGTACX_negctrl_site612],6.75
2,ACAAACAAAGAAAGAACACACATACACAAGATACCT [CACACA_site7353],6.81
3,TGAATATTTTATGATTGTACATATTATAATAAACAT [XGTACX_site6113],7.05
4,AATATTTTAATGCACACACACAAAAAAAAAAAAAAA [CACACA_site7374],7.35
5,AATCCTTTACGACACACACACAAAAAAAAAAAAAAA [CACACA_site6449],7.22
6,TTTTTCTTTCTTTCTTTTTTAATATTACAAATGTAT [XGTACX_negctrl_site267],7.08
7,TTATTAAAACAAAATGTACACACATATAATTTAATG [CACACA_site8193],7
8,TTCAATGCATGTCCATGTACATATAAAAAAAAATAC [XGTACX_site1597],7.45
9,TGTTGGCAGGTGAATGCATGCATATAAGTCTATCTG [TGCATGCA_site781],6.82
10,CACCCTTTACACAAGGTGCATACTTTATTATATTTT [GTGCAC_site9778],10.6
11,AAAGTAGAATATCCCCTACACACCCAAATAATTTAC [CACACA_site1255],7.28
12,AACCACATACCTATAACACACATATACAATATAGAT [CACACA_site7023],7.22
13,TCCACAAAGCATGTAACACACAACATATAAGACATA [CACACA_site972],6.99
14,ACATCATAGAAAAATTGATATATATATATATATATA [CACACA_negctrl_site130],9.65
15,TATATATTTTATTTATGTACGAAAATAAATTAAATT [XGTACX_site3628],6.94
16,TTAAAAAAATTAATATGTACATATATTTATATATAT [XGTACX_site5317],7.34
17,TATTAAAAAGAGGTGACACACACATATAAATCTAAA [CACACA_site9243],6.79
18,AAATATATATAAATGAGTACTTATGGTAACATATAT [XGTACX_site6362],7.43
19,AGAGCATAATAAAACACACACATACATACCTATATA [CACACA_site6566],6.96
20,AAAAAATATTGAAGTACACACATTATGAACTTTTTT [CACACA_site1733],6.98
